Consider one molecule from patent EP4768503A1 (Keymed Biosciences (Chengdu) Co., Ltd., dated 2026).

In one assay the target is T1, Aβ1-42 protofibril (human).
T1 construct: also called amyloid protofibril
The experiment in a line: graded binding, chimeric antibody (assay not named; ELISA in Example 1). In general terms: ELISA stands for enzyme-linked immunosorbent assay.

The next assay concerns the target T2, Aβ1-42 monomer (human).
T2 construct: Preparation of the monomer is not described
The description is as above.

Aβ1-42 monomer, sequence (peptide, as listed by the source): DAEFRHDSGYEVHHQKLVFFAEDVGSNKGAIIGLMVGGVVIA
Aβ1-42 protofibril, sequence (peptide, as listed by the source): as above

B1: 15E11-2 (antibody, V domains shown)
VH: QVTLKESGPGILQPSQTLSLTCSFSGFSLSTSGMGVSWIRQPSGKGLEWLAHIYWDDDKRYNPSLKSRLTISKVTSRNQVFLKITSVDTADTATYYCARYDKGFPYWGQGTLVTVSA
VL: DTVMTQSPSSLAMSVGQKVTMSCKSSQSLLNSSNQKNYLAWYQQKPGQSPKLLIYFASTRESGVPDRFIGSGSGTDFTLTISSVQAEDLADYFCQQHYSTPLTFGAGTKLELK
notes: Chimeric antibody; the constant region of the chimeric form is not specified
Turning to B1, the binding result with Aβ1-42 protofibril and with Aβ1-42 monomer was “binds” in each case.
